Here are results for five molecules from publication PMC9767466.

Results are given in words; binding and its absence hold for the method and conditions named. For some assays here: In cells and extracts the contact can be indirect. Some results given as binding are weak or reduced against the parent protein; the word gives no strength. For some assays here: Sequences can lack the tags named with a protein.

Assay [1] deals with T1, gp91phox, endogenous in PLB985 cells (human (endogenous in PLB985)) (UniProt P04839).
T1 sequence: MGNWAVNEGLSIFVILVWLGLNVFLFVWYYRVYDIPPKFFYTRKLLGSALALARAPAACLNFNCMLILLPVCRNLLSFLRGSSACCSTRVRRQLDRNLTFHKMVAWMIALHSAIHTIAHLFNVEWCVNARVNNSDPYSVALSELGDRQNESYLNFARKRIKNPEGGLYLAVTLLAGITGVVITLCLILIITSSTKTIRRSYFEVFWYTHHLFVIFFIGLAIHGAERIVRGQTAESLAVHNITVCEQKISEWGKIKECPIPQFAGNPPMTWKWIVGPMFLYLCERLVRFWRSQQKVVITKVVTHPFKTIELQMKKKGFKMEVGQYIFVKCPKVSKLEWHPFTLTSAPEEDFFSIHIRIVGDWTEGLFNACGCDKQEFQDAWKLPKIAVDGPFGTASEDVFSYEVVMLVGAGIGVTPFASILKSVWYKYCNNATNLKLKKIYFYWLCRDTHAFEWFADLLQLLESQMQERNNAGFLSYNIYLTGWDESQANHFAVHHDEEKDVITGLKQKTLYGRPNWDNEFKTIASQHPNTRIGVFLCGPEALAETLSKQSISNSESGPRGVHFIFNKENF
In words: co-IP; IP of endogenous gp91phox (mouse anti-gp91phox antibody, Protein G magnetic beads) from PLB985 lysate; immunoblot for EROS and p22phox.

Assay [2] deals with T2, gp91phox-GFP (not stated (human or mouse cDNA cloned)) (UniProt Q61093).
T2 sequence: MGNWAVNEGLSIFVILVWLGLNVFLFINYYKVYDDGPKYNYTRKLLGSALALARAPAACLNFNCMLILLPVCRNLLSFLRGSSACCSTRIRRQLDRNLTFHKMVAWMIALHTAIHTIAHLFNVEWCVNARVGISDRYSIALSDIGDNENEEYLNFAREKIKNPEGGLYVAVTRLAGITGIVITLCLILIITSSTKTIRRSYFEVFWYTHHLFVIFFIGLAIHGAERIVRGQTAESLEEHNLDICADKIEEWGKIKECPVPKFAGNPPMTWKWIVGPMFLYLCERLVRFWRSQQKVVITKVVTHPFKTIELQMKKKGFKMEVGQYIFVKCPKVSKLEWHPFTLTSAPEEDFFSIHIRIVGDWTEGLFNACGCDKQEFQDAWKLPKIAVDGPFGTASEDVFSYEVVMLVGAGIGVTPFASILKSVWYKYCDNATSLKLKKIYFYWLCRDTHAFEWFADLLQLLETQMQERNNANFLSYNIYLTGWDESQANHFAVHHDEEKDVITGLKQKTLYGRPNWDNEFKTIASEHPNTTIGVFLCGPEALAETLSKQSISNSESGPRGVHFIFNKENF
In words: SEC; Streptactin eluate of EROS from HEK293-F cells run on a Superose 6 column; protein (280 nm) and heme (414 nm) traces; fractions immunoblotted for gp91phox-GFP, EROS-FLAG and p22phox. For orientation: Size exclusion chromatography separates by hydrodynamic size, large species first.

Assay [3] deals with EROS (CYBC1) aa 1-187, yeast two-hybrid fusion (Hybrigenics) (human) (UniProt Q9BQA9). In words: two-hybrid; Hybrigenics; Gal4 DBD bait (pB66) and Gal4 AD prey (pP7), mating, diploid yeast, HIS3 reporter; growth on DO-3 medium (without tryptophan, leucine and histidine); streaks of three independent clones.
The target of assay [4] is T3, N-terminal FLAG-tagged EROS in RAW 264.7 macrophages (UniProt Q3TYS2).
T3 sequence: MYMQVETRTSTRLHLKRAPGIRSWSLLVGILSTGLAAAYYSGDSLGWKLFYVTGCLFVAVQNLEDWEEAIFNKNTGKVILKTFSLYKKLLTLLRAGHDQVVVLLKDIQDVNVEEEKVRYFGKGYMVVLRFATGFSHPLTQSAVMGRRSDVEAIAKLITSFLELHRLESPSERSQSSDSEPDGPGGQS
In words: co-IP; IP of FLAG-EROS (rat anti-FLAG antibody, Protein G magnetic beads) from RAW264.7 EROS-FLAG macrophage lysate; immunoblot for P2X7. For orientation: In western blotting, separated proteins are transferred to a membrane and probed.

Assay [5] has as its target T4, gp91phox (CYBB) aa 1-570, yeast two-hybrid fusion (Hybrigenics) (human), P04839.
T4 chain: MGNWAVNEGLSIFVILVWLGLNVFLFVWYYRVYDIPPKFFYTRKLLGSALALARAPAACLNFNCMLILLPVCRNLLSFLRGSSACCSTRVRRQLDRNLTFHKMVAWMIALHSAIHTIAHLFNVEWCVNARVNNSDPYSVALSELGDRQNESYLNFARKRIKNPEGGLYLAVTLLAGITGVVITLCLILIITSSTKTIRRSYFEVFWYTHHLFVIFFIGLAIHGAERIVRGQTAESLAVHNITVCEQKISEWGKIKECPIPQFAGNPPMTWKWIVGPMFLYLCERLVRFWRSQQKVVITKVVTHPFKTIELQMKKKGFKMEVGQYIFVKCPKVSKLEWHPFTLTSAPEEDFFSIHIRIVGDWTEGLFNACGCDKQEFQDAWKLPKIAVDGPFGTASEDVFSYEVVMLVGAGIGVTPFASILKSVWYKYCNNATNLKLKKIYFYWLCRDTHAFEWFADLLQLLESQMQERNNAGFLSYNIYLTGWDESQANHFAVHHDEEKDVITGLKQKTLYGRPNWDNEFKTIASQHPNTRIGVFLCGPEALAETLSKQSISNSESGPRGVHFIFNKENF
Kind of assay: two-hybrid; Hybrigenics; Gal4 DBD bait (pB66) and Gal4 AD prey (pP7), mating, diploid yeast, HIS3 reporter; growth on DO-3 medium (without tryptophan, leucine and histidine); streaks of three independent clones. Particulars: remark: other sources report otherwise.

B1: p22phox, endogenous in PLB985 cells (protein, UniProt P13498 1-195)
chain: MGQIEWAMWANEQALASGLILITGGIVATAGRFTQWYFGAYSIVAGVFVCLLEYPRGKRKKGSTMERWGQKYMTAVVKLFGPFTRNYYVRAVLHLLLSVPAGFLLATILGTACLAIASGIYLLAAVRGEQWTPIEPKPRERPQIGGTIKQPPSNPPPRPPAEARKKPSEEEAAVAAGGPPGGPQVNPIPVTDEVV
Take B1: the binding entry in assay [1] is given as “binds”.

B2: p22phox (untagged pEGBacMam-p22phox) (protein, UniProt P13498 1-195)
chain: MGQIEWAMWANEQALASGLILITGGIVATAGRFTQWYFGAYSIVAGVFVCLLEYPRGKRKKGSTMERWGQKYMTAVVKLFGPFTRNYYVRAVLHLLLSVPAGFLLATILGTACLAIASGIYLLAAVRGEQWTPIEPKPRERPQIGGTIKQPPSNPPPRPPAEARKKPSEEEAAVAAGGPPGGPQVNPIPVTDEVV
Consider B2, for which the binding result in assay [2] is “binds”.

B3: EROS (CYBC1) aa 1-187, yeast two-hybrid fusion (Hybrigenics) (protein, UniProt Q9BQA9-1 1-187)
chain: MYLQVETRTSSRLHLKRAPGIRSWSLLVGILSIGLAAAYYSGDSLGWKLFYVTGCLFVAVQNLEDWEEAIFDKSTGKVVLKTFSLYKKLLTLFRAGHDQVVVLLHDVRDVSVEEEKVRYFGKGYMVVLRLATGFSHPLTQSAVMGHRSDVEAIAKLITSFLELHCLESPTELSQSSDSEAGDPASQS
B3: in assay [3], the binding entry is given as “no binding”.

B4: P2X7, endogenous in RAW 264.7 macrophages (receptor, UniProt Q9Z1M0 1-595)
chain: MPACCSWNDVLQYETNKVTRIQSTNYGTVKWVLHMIVFSYISFALVSDKLYQRKEPVISSVHTKVKGIAEVTENVTEGGVTKLGHSIFDTADYTFPLQGNSFFVMTNYVKSEGQVQTLCPEYPRRGAQCSSDRRCKKGWMDPQSKGIQTGRCVPYDKTRKTCEVSAWCPTEEEKEAPRPALLRSAENFTVLIKNNIHFPGHNYTTRNILPTMNGSCTFHKTWDPQCSIFRLGDIFQEAGENFTEVAVQGGIMGIEIYWDCNLDSWSHHCRPRYSFRRLDDKNTDESFVPGYNFRYAKYYKENNVEKRTLIKAFGIRFDILVFGTGGKFDIIQLVVYIGSTLSYFGLATVCIDLLINTYSSAFCRSGVYPYCKCCEPCTVNEYYYRKKCESIMEPKPTLKYVSFVDEPHIRMVDQQLLGKSLQVVKGQEVPRPQMDFSDLSRLSLSLHDSPLTPGQSEEIQLLHEEVAPKSGDSPSWCQCGNCLPSRLPEQRRALEELCCRRKPGRCITTSKLFHKLVLSRDTLQLLLLYQDPLLVLGEEATNSRLRHRAYRCYATWRFGSQDMADFAILPSCCRWRIRKEFPKTEGQYSGFKYPY
As for B4, in assay [4], the binding entry is “binds”.

B5: gp91phox (CYBB) aa 1-570, yeast two-hybrid fusion (Hybrigenics), P04839 1-570 (protein)
chain: MGNWAVNEGLSIFVILVWLGLNVFLFVWYYRVYDIPPKFFYTRKLLGSALALARAPAACLNFNCMLILLPVCRNLLSFLRGSSACCSTRVRRQLDRNLTFHKMVAWMIALHSAIHTIAHLFNVEWCVNARVNNSDPYSVALSELGDRQNESYLNFARKRIKNPEGGLYLAVTLLAGITGVVITLCLILIITSSTKTIRRSYFEVFWYTHHLFVIFFIGLAIHGAERIVRGQTAESLAVHNITVCEQKISEWGKIKECPIPQFAGNPPMTWKWIVGPMFLYLCERLVRFWRSQQKVVITKVVTHPFKTIELQMKKKGFKMEVGQYIFVKCPKVSKLEWHPFTLTSAPEEDFFSIHIRIVGDWTEGLFNACGCDKQEFQDAWKLPKIAVDGPFGTASEDVFSYEVVMLVGAGIGVTPFASILKSVWYKYCNNATNLKLKKIYFYWLCRDTHAFEWFADLLQLLESQMQERNNAGFLSYNIYLTGWDESQANHFAVHHDEEKDVITGLKQKTLYGRPNWDNEFKTIASQHPNTRIGVFLCGPEALAETLSKQSISNSESGPRGVHFIFNKENF
Turning to B5, in assay [5], the binding entry is listed as “no binding”.
